Experimental data as given in the supplement of paper PMC4967469.

Columns and labels:
Assay in all cases: Viability of human cancer cell lines after 72 h of drug (GDSC screen)
[1] = compound: Cc1n[nH]c2ccc(-c3cncc(OC[C@@H](N)Cc4c[nH]c5ccccc45)c3)cc12 [A-443654]; details: top dose 1.024 µM; top dose inferred
Experimental: (§1)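 Human cancer cell lines in 384-well plates, medium with 10% serum, drug for 72 h over a 256-fold dose range (nine 2-fold or five 4-fold steps up to the top dose). Adherent lines were fixed and stained with the nucleic acid dye Syto60, suspension lines read with resazurin; signal relative to control wells, capped at 0 and 100%. One two-parameter sigmoid per drug and line, fitted in a mixed model over all curves with the slope shared within a line.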

[2] = compound: O=C(NC1CCNCC1)c1n[nH]cc1NC(=O)c1c(Cl)cccc1Cl [AT-7519]; details: top dose 10.24 µM; top dose inferred
Experimental: as §1

[3] = compound: COc1cc(N2CCN(C)CC2)ccc1Nc1nc(N)c(C(=O)c2c(Cl)cccc2Cl)s1 [XMD14-99]; details: top dose 10.24 µM; top dose inferred
Experimental: as §1

[4] = compound: Cc1cc([N+](=O)[O-])ccc1NS(=O)(=O)c1cc(Cl)ccc1Cl [FH535]; details: top dose 32 µM; top dose inferred
Experimental: as §1

[5] = compound: Cc1nc(Nc2ncc(C(=O)Nc3c(C)cccc3Cl)s2)cc(N2CCN(CCO)CC2)n1 [Dasatinib]; details: top dose 1.28 µM
Experimental: as §1

DEL (lymphoid neoplasm, suspension)
AUC [1]: 0.714
IC50 [1]: 0.22 µM
AUC [2]: 0.288
IC50 [2]: 0.188 µM
AUC [3]: 0.692
IC50 [3]: 1.94 µM
AUC [4]: 0.716
IC50 [4]: 6.99 µM

SF268 (glioma, adherent)
AUC [1]: 0.782
IC50 [1]: 0.464 µM
AUC [2]: 0.448
IC50 [2]: 0.458 µM
AUC [3]: 0.975
IC50 [3]: > 10.2 µM
AUC [4]: 0.668
IC50 [4]: 6.1 µM

KM12 (large intestine, adherent)
AUC [1]: 0.677
IC50 [1]: 0.209 µM
AUC [2]: 0.853
IC50 [2]: 9.09 µM
AUC [3]: 0.959
IC50 [3]: > 10.2 µM
AUC [4]: 0.669
IC50 [4]: 6.19 µM

CAL-148 (breast, suspension)
AUC [1]: 0.486
IC50 [1]: 0.0587 µM
AUC [2]: 0.922
IC50 [2]: > 10.2 µM
AUC [3]: 0.989
IC50 [3]: > 10.2 µM
AUC [4]: 0.731
IC50 [4]: 8.57 µM

SCH (stomach, adherent)
AUC [1]: 0.898
IC50 [1]: > 1.02 µM
AUC [2]: 0.87
IC50 [2]: > 10.2 µM
AUC [3]: 0.985
IC50 [3]: > 10.2 µM
AUC [4]: 0.786
IC50 [4]: 15 µM

U-87-MG (glioma, adherent)
AUC [1]: 0.976
IC50 [1]: > 1.02 µM
AUC [2]: 0.834
IC50 [2]: 8.35 µM
AUC [3]: 0.978
IC50 [3]: > 10.2 µM
AUC [4]: 0.832
IC50 [4]: 25.5 µM

SNU-C2B (large intestine, adherent)
AUC [1]: 0.67
IC50 [1]: 0.223 µM
AUC [2]: 0.52
IC50 [2]: 0.74 µM
AUC [3]: 0.978
IC50 [3]: > 10.2 µM
AUC [4]: 0.612
IC50 [4]: 4.49 µM

CP67-MEL (melanoma, adherent)
AUC [1]: 0.716
IC50 [1]: 0.424 µM
AUC [5]: 0.636
IC50 [5]: 0.254 µM

K-562 (chronic myeloid leukaemia, suspension)
AUC [1]: 0.791
IC50 [1]: 0.445 µM
AUC [3]: 0.968
IC50 [3]: > 10.2 µM

GAK (melanoma, adherent)
AUC [1]: 0.926
IC50 [1]: > 1.02 µM
AUC [2]: 0.985
IC50 [2]: > 10.2 µM
AUC [3]: 0.989
IC50 [3]: > 10.2 µM
AUC [4]: 0.484
IC50 [4]: 1.82 µM

THP-1 (acute myeloid leukaemia, suspension)
AUC [1]: 0.969
IC50 [1]: > 1.02 µM
AUC [3]: 0.908
IC50 [3]: > 10.2 µM
AUC [4]: 0.827
IC50 [4]: 16.9 µM

HL-60 (acute myeloid leukaemia, suspension)
AUC [1]: 0.829
IC50 [1]: 0.548 µM
AUC [2]: 0.493
IC50 [2]: 0.613 µM
AUC [3]: 0.978
IC50 [3]: > 10.2 µM
AUC [4]: 0.617
IC50 [4]: 4.05 µM

MV-4-11 (leukaemia, suspension)
AUC [1]: 0.459
IC50 [1]: 0.0505 µM
AUC [3]: 0.882
IC50 [3]: 7.51 µM
AUC [4]: 0.668
IC50 [4]: 5.34 µM

DG-75 (Burkitt lymphoma, suspension)
AUC [1]: 0.832
IC50 [1]: 0.663 µM
AUC [2]: 0.434
IC50 [2]: 0.422 µM
AUC [3]: 0.985
IC50 [3]: > 10.2 µM
AUC [4]: 0.896
IC50 [4]: > 32 µM

SU-DHL-1 (anaplastic large cell lymphoma, suspension)
AUC [1]: 0.803
IC50 [1]: 0.351 µM
AUC [2]: 0.328
IC50 [2]: 0.245 µM
AUC [3]: 0.82
IC50 [3]: 3.9 µM
AUC [4]: 0.964
IC50 [4]: > 32 µM

OS-RC-2 (kidney, adherent)
AUC [1]: 0.66
IC50 [1]: 0.217 µM
AUC [2]: 0.769
IC50 [2]: 5.71 µM
AUC [3]: 0.969
IC50 [3]: > 10.2 µM
AUC [4]: 0.668
IC50 [4]: 7.28 µM

EW-12 (Ewing sarcoma, suspension)
AUC [1]: 0.978
IC50 [1]: > 1.02 µM
AUC [5]: 0.977
IC50 [5]: > 1.28 µM

DU-4475 (breast, suspension)
AUC [1]: 0.768
IC50 [1]: 0.317 µM
AUC [2]: 0.373
IC50 [2]: 0.307 µM
AUC [3]: 0.912
IC50 [3]: 10 µM
AUC [4]: 0.7
IC50 [4]: 6.45 µM

KASUMI-1 (acute myeloid leukaemia, suspension)
AUC [1]: 0.966
IC50 [1]: > 1.02 µM
AUC [2]: 0.352
IC50 [2]: 0.248 µM
AUC [3]: 0.894
IC50 [3]: > 10.2 µM

HEL (acute myeloid leukaemia, semi-adherent)
AUC [1]: 0.809
IC50 [1]: 0.428 µM
AUC [2]: 0.915
IC50 [2]: > 10.2 µM
AUC [3]: 0.932
IC50 [3]: > 10.2 µM
AUC [4]: 0.672
IC50 [4]: 5.47 µM

RKO (large intestine, adherent)
AUC [1]: 0.64
IC50 [1]: 0.152 µM
AUC [2]: 0.418
IC50 [2]: 0.389 µM
AUC [3]: 0.977
IC50 [3]: > 10.2 µM
AUC [4]: 0.518

KU812 (chronic myeloid leukaemia, suspension)
AUC [1]: 0.567
AUC [2]: 0.205
IC50 [2]: 0.0952 µM
AUC [3]: 0.949
IC50 [3]: > 10.2 µM
AUC [4]: 0.735
IC50 [4]: 8.71 µM

NCI-H23 (lung adenocarcinoma, adherent)
AUC [1]: 0.825
IC50 [1]: 0.603 µM
AUC [2]: 0.739
IC50 [2]: 3.06 µM
AUC [3]: 0.988
IC50 [3]: > 10.2 µM
AUC [4]: 0.896
IC50 [4]: > 32 µM

KYSE-450 (oesophagus, adherent)
AUC [2]: 0.506
IC50 [2]: 0.662 µM
AUC [3]: 0.965
IC50 [3]: > 10.2 µM
AUC [4]: 0.7
IC50 [4]: 7.04 µM

NCI-H810 (large cell lung carcinoma, adherent)
AUC [2]: 0.488
IC50 [2]: 0.593 µM
AUC [3]: 0.947
IC50 [3]: > 10.2 µM
AUC [4]: 0.404
IC50 [4]: 1.1 µM

ME-180 (cervix, adherent)
AUC [2]: 0.569
IC50 [2]: 0.997 µM
AUC [3]: 0.978
IC50 [3]: > 10.2 µM
AUC [4]: 0.691
IC50 [4]: 7.06 µM

PA-1 (ovary, adherent)
AUC [2]: 0.26
IC50 [2]: 0.16 µM
AUC [3]: 0.926
IC50 [3]: > 10.2 µM
AUC [4]: 0.564
IC50 [4]: 2.87 µM

LoVo (large intestine, adherent)
AUC [2]: 0.964
IC50 [2]: > 10.2 µM
AUC [3]: 0.986
IC50 [3]: > 10.2 µM
AUC [4]: 0.48
IC50 [4]: 1.76 µM

MG-63 (osteosarcoma, adherent)
AUC [2]: 0.98
IC50 [2]: > 10.2 µM
AUC [3]: 0.982
IC50 [3]: > 10.2 µM
AUC [4]: 0.686
IC50 [4]: 7.28 µM

HGC-27 (stomach, adherent)
AUC [2]: 0.463
IC50 [2]: 0.515 µM
AUC [3]: 0.967
IC50 [3]: > 10.2 µM
AUC [4]: 0.609
IC50 [4]: 3.8 µM

A431 (skin, adherent)
AUC [2]: 0.36
IC50 [2]: 0.268 µM
AUC [3]: 0.987
IC50 [3]: > 10.2 µM
AUC [4]: 0.564
IC50 [4]: 2.97 µM

MDA-MB-468 (breast, adherent)
AUC [2]: 0.626
IC50 [2]: 1.4 µM
AUC [3]: 0.969
IC50 [3]: > 10.2 µM
AUC [4]: 0.437
IC50 [4]: 1.36 µM

SKG-IIIa (cervix, adherent)
AUC [2]: 0.982
IC50 [2]: > 10.2 µM
AUC [3]: 0.98
IC50 [3]: > 10.2 µM
AUC [4]: 0.801
IC50 [4]: 22.3 µM

A lower IC50 marks a more sensitive line; a fit beyond the top or the lowest dose is shown as a bound at that dose. AUC sums up the same curve from the lowest dose to the 256-fold higher top dose; it is 1 without any effect and falls as sensitivity rises. For some assays here: Where the top dose is marked as inferred, it comes from the curve model; the source does not state it.
